Data as given in the BET-seq Pho4 binding data (Le et al. 2018).
Some of the results follow. Values were computed here from the reads of four pooled replicates and scatter widely.

Molecular target: T1, Pho4 (S. cerevisiae) (UniProt P07270)
T1 sequence: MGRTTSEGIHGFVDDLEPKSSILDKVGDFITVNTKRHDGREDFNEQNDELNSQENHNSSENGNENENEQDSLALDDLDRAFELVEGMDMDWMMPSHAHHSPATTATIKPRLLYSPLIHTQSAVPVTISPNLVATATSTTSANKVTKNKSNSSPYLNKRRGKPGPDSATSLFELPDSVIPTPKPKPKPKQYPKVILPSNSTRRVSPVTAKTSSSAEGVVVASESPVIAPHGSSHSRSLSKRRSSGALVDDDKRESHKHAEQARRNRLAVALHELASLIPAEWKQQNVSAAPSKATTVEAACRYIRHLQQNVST
Test: relative binding free energy (BET-seq); higher = weaker binding
Conditions: reference: library average

Row | Sequence | relative binding free energy [kcal/mol]
1 | GTGGCCACGTGTGGGG | 0.04
2 | CGGTGCACGTGTGAAG | -0.03
3 | GTTTCCACGTGTGTGG | 0.14
4 | TTTAGCACGTGAAGGT | 0.18
5 | TGGATCACGTGGTTGC | 0.12
6 | CATGTCACGTGGATGA | 0.03
7 | AGGAGCACGTGAGGTG | 0.12
8 | TTTTACACGTGGTACG | 0.11
9 | GGATGCACGTGTTGGG | 0.05
10 | GGGGGCACGTGTCAAT | -0.06
11 | TTGCTCACGTGATTAG | 0.35
12 | AGGTTCACGTGGCTAG | 0.15
13 | TGTCACACGTGTCAGG | 0.16
14 | AGGCACACGTGGTTTG | -0.02
15 | CTAGTCACGTGTTGGA | 0.09
16 | CGGAGCACGTGTGGCG | -0.14
17 | AGGGCCACGTGCGGCG | -0.14
18 | TATGACACGTGATGAG | -0.03
19 | GTGGTCACGTGGAGTA | 0.03
20 | ATATGCACGTGTCGGT | -0.1
21 | TAGGTCACGTGGCGGC | 0.07
22 | CTAAGCACGTGGTTTT | -0.15
23 | TTGGGCACGTGGTTAC | -0.15

Row | Sequence | relative binding free energy [kcal/mol]
24 | TTGTTCACGTGATCAA | 0.42
25 | CGGGTCACGTGTTGAA | 0.08
26 | GTTGTCACGTGTAATG | 0.13
27 | TAGTACACGTGGGGTG | -0.13
28 | GTCGGCACGTGCGGGA | 0.02
29 | AATTGCACGTGTGGGA | 0.01
30 | GATTTCACGTGGAGGA | 0.38
31 | GAGATCACGTGGATGG | 0.12
32 | ACATTCACGTGTGGGT | 0.2
33 | TGGGTCACGTGCTTGA | 0.12
34 | AAGTGCACGTGTGCGT | -0.04
35 | TGCCTCACGTGGTTGG | 0.08
36 | GGTGGCACGTGGCTGA | -0.08
37 | GTCTGCACGTGTGTTT | 0.18
38 | TGGGACACGTGAGTAG | 0.19
39 | GGAGCCACGTGGAGGT | -0.03
40 | GAATTCACGTGATGTT | 0.23
41 | TGGGTCACGTGTGTCC | 0.15
42 | TTCGGCACGTGATTGG | 0.12
43 | ACGGTCACGTGTTGCA | 0.15
44 | AGGGGCACGTGAGATA | 0.19
45 | GGCCGCACGTGGCGGT | -0.07
46 | GTGGGCACGTGGATTG | 0.05

Row | Sequence | relative binding free energy [kcal/mol]
47 | GTAGTCACGTGAGGCG | 0.28
48 | CGGAACACGTGTGGGT | -0.04
49 | AGTCTCACGTGAGGGC | 0.39
50 | TAACACACGTGTGTGT | 0.05
51 | CTGGGCACGTGATGAG | 0.04
52 | TCATGCACGTGGGTTG | -0.18
53 | ATATCCACGTGTTGTG | -0.08
54 | TGATGCACGTGTGTGT | 0.06
55 | TTTAGCACGTGTCTTA | -0.09
56 | AGGGTCACGTGAGGCC | 0.31
57 | TATGTCACGTGATAGG | 0.2
58 | TAAAGCACGTGATGTG | 0.05
59 | CAGGTCACGTGGTAAT | 0.14
60 | TATATCACGTGTTATT | 0.2
61 | GGTAACACGTGAAAGG | 0.39
62 | CATTGCACGTGAGGGC | 0.23
63 | TGTTTCACGTGGGGAC | 0.25
64 | GTGGGCACGTGCATTG | -0.09
65 | AAGCGCACGTGTGGCG | 0.09
66 | ATTCGCACGTGTGTAG | -0.02
67 | CGGTTCACGTGGCATG | 0.16
68 | ATTATCACGTGTAAGG | 0.09
69 | TCAGTCACGTGTTGAG | 0.08

Row | Sequence | relative binding free energy [kcal/mol]
70 | AGTAGCACGTGATGGT | 0.1
71 | TATGACACGTGATATA | 0.2
72 | TATTGCACGTGTAAAT | 0.06
73 | GGCGTCACGTGGGCTT | 0.03
74 | GGGATCACGTGTTCAT | 0.3
75 | TGTTGCACGTGCGATA | 0.02
76 | GATATCACGTGTTGGT | 0.2
77 | GGAGACACGTGCGTTG | 0.1
78 | AGTGTCACGTGAGTGT | 0.26
79 | TTGGACACGTGCGTCG | 0.03
80 | AGGGTCACGTGCCTGT | 0.09
81 | TGTGTCACGTGGGACA | -0.06
82 | ACTGTCACGTGTGTGG | 0.1
83 | AGGGACACGTGCCGTG | -0.01
84 | CGGCTCACGTGGAGGA | 0.33
85 | GATCACACGTGGGTTG | -0.06
86 | TTTTGCACGTGATGCG | -0.01
87 | CATTTCACGTGTAGAG | 0.12
88 | TTGATCACGTGTTAGT | 0.13
89 | AGACGCACGTGTGGGA | -0.01
90 | TTCGTCACGTGAGTGG | 0.32
91 | TGGCGCACGTGTATGA | -0.12
92 | AAGATCACGTGGCGTG | 0.03

Row | Sequence | relative binding free energy [kcal/mol]
93 | ATTGGCACGTGTGATT | -0.13
94 | TCTTACACGTGGTTGG | 0.08
95 | AGTGTCACGTGACGTT | 0.35
96 | TACTACACGTGTGTGA | 0.23
97 | GTTGTCACGTGTATGT | 0.07
98 | CTTTACACGTGGTGTG | 0.01
99 | TTACTCACGTGATAGG | 0.26
100 | GCGGACACGTGTGGTA | 0.22
101 | GCTGTCACGTGGTGAG | 0.21
102 | TAAGTCACGTGTGTCA | -0.02
103 | TTCGGCACGTGTGGTG | -0.06
104 | AGGCGCACGTGGTCGT | -0.14
105 | GCAGTCACGTGTTATG | 0.18
106 | GAAAGCACGTGGTGGC | -0.08
107 | GGTCTCACGTGTGTGT | 0.3
108 | AATGACACGTGAGTGT | 0.22
109 | TTGGTCACGTGTGCGA | 0.1
110 | AGTAACACGTGGGTGT | -0.15
111 | GGATACACGTGAGGTA | 0.22
112 | GTTCTCACGTGAGTGA | 0.27
113 | CGATGCACGTGTTTTG | 0.04
114 | TGTTACACGTGGATTA | 0.11
115 | CGTATCACGTGTGGAA | 0.21
